From PubChem BioAssay (NCI) come the findings set out here.

The structures appear in SMILES notation. “And” between values parts separate entries of the source, which are not always exact repeats. Equal values may be shown once.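 Grown in 96-well plates, cells were treated for 48 hours with each compound at five concentrations. Insufficient inhibition: endpoint recorded as highest concentration tested. The concentration for 50% growth inhibition is given as GI50. TGI: concentration producing complete growth inhibition.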

The assay deals with NCI-H322M lung. Kind of assay: NCI tumour cell line growth inhibition, 48 h.
In the case of `O=C(Cn1c(C(=O)c2ccc(Cl)cc2)nc(-c2ccc(Cl)cc2)c1-c1ccc(Cl)cc1)c1ccccc1`, the GI50 was above 100 µM and the TGI was above 100 µM. In turn, `COC(=O)Nc1nc2ccc(S(=O)(=O)Nc3ccccn3)cc2[nH]1` registered a TGI above 100 µM. Same read-out and setting: under `CCOC(=O)/C=C/C(=O)O/C=C/[N+](=O)[O-]` stands above 100 µM; under `COc1ccc(-c2coc3cc(O)ccc3c2=O)cc1`, above 100 µM; under `Clc1ccc(CCNC2(c3cc4ccccc4s3)CCCCC2)cc1Cl`, above 100 µM. On the same count and under the same terms, under `COc1cc2c(cc1OC)C(C#N)N(C(=O)c1ccccc1)C=C2OC(=O)c1ccccc1` (centres undefined) stands 61 µM. Turning to `COc1cc2c3c(n(CCCN(CCCN(CCCn4c5c(c6ccccc6c4=O)C(=O)c4ccccc4-5)C(=O)OC(C)(C)C)C(=O)OC(C)(C)C)c(=O)c2cc1OC)-c1cc2c(cc1C3=O)OCO2`, the GI50 was 0.119 µM and the TGI was 91.1 µM. `COC(=O)C12CCC(C)(C)CC1C1=CCC3C4(C)CC(O)C(O)C(C)(C(=O)OC)C4CCC3(C)C1(CO)CC2` (centres undefined): the TGI was determined as 32.3 µM.

Compound `C/C(=N\Nc1nc2cc(Cl)ccc2s1)c1ccccn1` had a TGI of 58.4 µM.

Take `CC(=O)OCC1OC(n2cnc3nc(Br)[nH]c(=O)c32)C(OC(C)=O)C1OC(C)=O` (centres undefined): the TGI was above 100 µM.

As for `O=C1/C(=C/c2ccc([N+](=O)[O-])s2)Oc2cc(Cl)ccc21`, the GI50 is 13.1 µM and the TGI is above 100 µM. Consider `CCCCCCSc1nc(N)nc2nc[nH]c12`, for which the TGI is above 100 µM. In turn, `COc1ccccc1NC(=S)N=Nc1c(O)[nH]c2ccccc12` registered a TGI above 100 µM. Consider `Oc1cc(N2CC2)c(O)cc1N1CC1`, for which the GI50 is 1.7 µM and the TGI was found to be 5.34 µM. `CCc1ccccc1NC(=O)C(=O)C(C#N)c1ccccc1Cl` (centres undefined) displayed a TGI above 100 µM. Same read-out and setting: in the case of `O=C(O)CCCCn1ccc(=O)[nH]c1=O` it was above 100 µM. On the same count and under the same terms, under `c1ccc2c(c1)SC(=C1Sc3ccccc3S1)S2` stands above 100 µM; under `O=c1c2c3c(sc2nc2n1N=CN(c1ccccc1)C2)CCCC3`, above 100 µM; under `CCC(=O)Nc1cccc(N=Cc2ccc(OC(=O)/C=C\c3ccccc3)cc2)c1`, above 75 µM. The compound `O[C@@H]1C[C@H](Cl)c2c(Cl)sc(Cl)c21` gave a TGI above 100 µM. For `Cc1ccc(C)c2c1C(=O)N(c1ccc(F)cc1F)C2=O`, the GI50 is 28.7 µM and the TGI is above 100 µM. `CCOC(=O)/C=C(/C(=O)OCC)n1cc(C)c(=O)n(Cc2cnnn2COCCOC(C)=O)c1=O` had a TGI above 100 µM. The compound `N#CC(C#N)=CNCCN1CCN(C=C(C#N)C#N)CC1` had a TGI above 100 µM.

`O=[N+]([O-])c1cc(-c2nc(=S)[nH][nH]2)ccc1O` displayed a TGI above 100 µM. On to `O=C(c1ccccc1)N1CCN(C(=S)NC2CCCCC2)C1=S`, for which the TGI came to 51.9 µM. The same measure, in the same setting: in the case of `O=C1c2ccccc2C(=O)N1n1c(Cc2ccc(Cl)cc2)n[nH]c1=O` it was above 100 µM; in that of `CC1(C)OC[C@H](C(=N)OCc2ccccc2)O1`, above 100 µM. Compound `Nn1c(Nc2ccc(S(N)(=O)=O)cc2)nnc(/C=C/c2c(O)ccc3ccccc23)c1=O` registered a TGI of 46.7 µM. The compound `O=C(O)CN(c1ccccc1)S(=O)(=O)c1cccc([N+](=O)[O-])c1` registered a TGI above 100 µM. `COc1cc(C2c3cc4c(cc3OC(NNC(N)=O)C2C)OCO4)cc(OC)c1OC` (centres undefined) had a TGI of 61.5 µM. On the same count and under the same terms, under `C[C@@]1(CCCCCCCCCCc2ccccc2)C[C@@]2(C)OC(=O)C[C@H]2OO1` stands 29.2 µM. Same read-out and setting: under `O=C(NC(=Nc1ccccc1)SCSC(=Nc1ccccc1)NC(=O)c1ccco1)c1ccco1` stands above 100 µM. Consider `Cc1ccccc1C1=C(c2cn(C)c3ccccc23)C(=O)NC1=O`, for which the GI50 is above 25 µM and the TGI was above 25 µM. `CS(=O)(=O)N1CCC(n2c(=O)c(Oc3ccc(F)cc3F)cc3cnc(NC4CCOCC4)nc32)CC1`: the GI50 was above 25 µM and the TGI is above 25 µM. As to `COc1cc(C2S/C(=C/c3ccccc3)C(=O)N2Cc2ccccc2)cc(OC)c1OC` (centres undefined), the TGI is above 100 µM. On the same count and under the same terms, in the case of `CC(C)(C)N/N=C(\C(=O)Nc1cccc(Cl)c1)C1C(=O)Nc2ccccc2S1=O` (centres undefined) it was above 100 µM; in that of `CCc1ccccc1NC(=O)C(C#N)C1=C(Cl)C(=O)c2ccccc2C1=O` (centres undefined), 32.7 µM. Same read-out and setting: under `O=C(Cc1nc2ccc(C(=O)c3ccccc3)cc2[nH]c1=O)C(=O)Nc1nc2ccccc2[nH]1` stands above 100 µM; under `Cc1c(Cc2ccccc2)n(C(C)OCCN(OC(=O)Oc2ccccc2)C(=O)Oc2ccccc2)c(=O)[nH]c1=O` (centres undefined), 64.3 µM. For `Cc1ccc([P+](Cc2ccccc2)(c2ccccc2)c2ccccc2)cc1`, the GI50 was 4 µM and the TGI is 54.7 µM.

As to `COc1ccc(-c2oc3ccccc3c(=O)c2O)cc1OC`, the TGI was above 100 µM.

As for `O=c1cc(-c2ccccc2)[nH]c2ncccc12`, the TGI is above 100 µM. `Cc1cc2c(c(C(=O)NCC(=O)N[C@@H](C)C(=O)OCc3ccccc3)c1)Oc1c(cc(C)cc1C(=O)NCC(=O)N[C@@H](C)C(=O)OCc1ccccc1)S2`: the TGI is above 100 µM. Still for that read-out and setting: in the case of `[O-]/N=[N+](/[O-])C1CCCCC1=[N+]1CCOCC1` (centres undefined) it was above 100 µM; in that of `CC(C)NC(=O)OCc1c(COC(=O)NC(C)C)c(-c2ccc[n+](COC(=O)Cc3ccccc3)c2)n2c1CCC2`, above 100 µM; in that of `O=c1[nH]c2ccccc2c(O)c1Cc1ccccc1`, above 100 µM.

With `CSc1cc(Cl)c(C)cc1S(=O)(=O)NC(=O)NNc1ccc(F)cc1`, the TGI is above 100 µM. The compound `N/C=N/S(=O)(=O)c1ccc(NC(=O)COC(=O)c2cccc3c(=O)c4ccccc4[nH]c23)cc1` had a TGI above 100 µM. As for `Cc1ccc(F)c(NC(=O)Nc2ccc(-c3cccc4[nH]nc(N)c34)cc2)c1`, the GI50 was 3.34 µM and 3.02 µM; the TGI is 12.7 µM and > 10 µM.

In the case of `Nc1nc(NCCOCP(=O)(O)O)c([N+](=O)[O-])c(=O)[nH]1`, the TGI is above 100 µM.

Take `CN(C)C1CCN(Cc2ccc(NC(=O)c3cncc(C#Cc4cnc(N)c5ncccc45)c3)cc2C(F)(F)F)CC1`: the GI50 was 8.91 µM and the TGI came out at 16.2 µM.

In turn, `C/C(CCn1[nH]c(=O)ccc1=O)=N\NC(=O)C(N)=O` had a TGI above 100 µM. Same read-out and setting: in the case of `CC(C)OP(=S)(NC(=S)c1ccccc1)OC(C)C` it was above 100 µM.

As to `COc1cc2c(c(O)c1Cl)C(=O)c1c(O)cc(C[C@H](C)O)cc1[C@H]2[C@H]1c2cc(C[C@H](C)O)cc(O)c2C(=O)c2c1cc(OC)c(Cl)c2O`, the TGI was 75 µM and > 100 µM. As for `CNC(=O)c1nn(C)c2c1C(C)(C)Cc1cnc(Nc3cccc(N4CCN(C)CC4)c3)nc1-2`, the GI50 is 0.451 µM and the TGI came to 30 µM. For the compound `C/C=C1/CN2CCC34c5ccccc5N(C)C23C2CC1C4(C(=O)OC)C(OC(C)=O)O2` (centres undefined), the TGI was above 100 µM. Still for that read-out and setting: in the case of `CC(C)=CC1C(C(=O)Oc2ccccc2C(C)C)C1(C)C` (centres undefined) it was above 100 µM. The same measure, in the same setting: under `c1coc(-c2nccc3c2[nH]c2ccccc23)c1` stands above 100 µM; under `Oc1c(CN2CCCC2)ccc2cccnc12`, above 100 µM. Regarding `CNS(=O)(=O)OCC1OC(n2cnc3cncnc32)C(O)C1O` (centres undefined), the GI50 is above 100 µM and the TGI is above 100 µM. As for `C[C@H](c1ccc(F)cc1CCCC(=O)O)N(c1cc(F)ccc1F)S(=O)(=O)c1ccc(Cl)cc1`, the GI50 is 37.8 µM and the TGI was above 100 µM. Consider `CN(C)CCNC(=O)c1cccc2ccc(-c3ccc(Br)cc3)nc12`, for which the TGI worked out at 12.1 µM. Same read-out and setting: in the case of `COC(=O)[C@H](CC(C)C)NC(=O)[C@H](Cc1ccccc1)N1CC2C=CC1C2` (some centres undefined) it was above 100 µM. Still for that read-out and setting: under `Cn1cnc(N2CCCC2)c(C#N)c1=S` stands above 100 µM; under `COc1cccc(C=O)c1C(=O)c1cc(O)ccc1O`, above 100 µM; under `Cc1ncc([N+](=O)[O-])n1CC[N+](C)([O-])CCCCn1ccnc1[N+](=O)[O-]` (centres undefined), above 100 µM. On the same count and under the same terms, under `Nc1nc(Cl)cc(OCC2(CO)CCCC2)n1` stands above 100 µM; under `CC(C)(C)COC(=O)C(C)(C)NC(=O)C(CC(=O)OCc1ccccc1)NC(=O)OCc1ccccc1` (centres undefined), above 100 µM; under `CC(=O)OCC1OC(N2C(=O)NC(=O)C3C=C4CCCCC4=CC32)CC1OC(C)=O` (centres undefined), above 100 µM.

`CC#C[C@]1(O)CCC2[C@@H]3CCC4=CC(=O)CCC4=C3[C@@H](c3ccc(N(C)C)cc3)C[C@@]21C` (some centres undefined): the TGI came to 67.2 µM. `Cc1cc(=O)[nH]c(CNC(=O)c2ccc3ccccc3c2)n1` returned a TGI above 100 µM. Still for that read-out and setting: in the case of `CC[C@@]1(O)C[C@H](OC2CC(N(C)C)C(O)C(C)O2)c2c(cc3c(c2O)C(=O)c2c(O)ccc(O)c2C3=O)[C@H]1C(=O)OC` (some centres undefined) it was 0.522 µM; in that of `CN(C)CN1CSC(=S)N(CN(C)C)C1`, above 100 µM. Same read-out and setting: under `CCC12CCCN(Cc3ccccc3)C1c1c(n(C)c3ccccc13)C(CO)C2` (centres undefined) stands 140 µM. On the same count and under the same terms, in the case of `Cc1cc(Cl)nc2ccc(Cc3ccc4nc(Cl)cc(C)c4c3)cc12` it was above 100 µM. Consider `O=C1c2cc(I)ccc2N2CCN=C2N1Cc1ccccc1`, for which the TGI was above 100 µM. The same measure, in the same setting: in the case of `COC(=O)Oc1nn(C(=O)OC)c(=O)c2ccccc12` it was above 100 µM.

`COC(=O)[C@H]1COC(=S)N1C(=O)[C@@H](C)[C@H](O)C(C)C` had a TGI above 100 µM. Same read-out and setting: in the case of `CCOC(=O)c1c(NS(=O)(=O)c2ccc(C)cc2)sc2c1CCCC2` it was above 100 µM; in that of `CCc1cc(C)cc2[n+]1CC=C2`, above 100 µM. In the case of `CN1CC=C(c2cc(NC(=O)Nc3ccc(Oc4ccnc(NC(=O)C5CC5)c4)c(F)c3)cc(C(F)(F)F)c2)CC1`, the GI50 was 0.259 µM and the TGI amounted to 2.72 µM. As to `O=C(CCBr)N1CCN(C(=O)CCBr)CC1`, the TGI amounted to 289 µM.

As for `CC(c1cc(Cl)ccc1O)c1cc(Cl)ccc1O`, the GI50 is 12 µM and the TGI was 26.9 µM.

`COC(=O)C1=COC2OC3C(C(C)O)C(=O)OC34C=CC1C24` (centres undefined) displayed a TGI above 100 µM. Still for that read-out and setting: in the case of `CC1CCCC(C(=O)CC2CC(=O)NC(=O)C2)C1=O` (centres undefined) it was above 100 µM. Turning to `O=[N+]([O-])c1ccc(/C=C/c2nc3ccc(Cl)cc3[nH]2)cc1`, the GI50 is 33.7 µM and the TGI was above 100 µM.

As to `Cc1cc(=O)oc2cc(OCCCOc3ccc4c(C)cc(=O)oc4c3)ccc12`, the TGI is above 100 µM. The same measure, in the same setting: under `O=C1CC(/C=C/c2ccco2)=C(O)C1=O` stands 25.2 µM.
